Test results: the supplement of paper PMC12217912
Some of the results follow. Sequences were assembled here from the parent chain. Inactive controls read about 0.05.

B1: TEV protease; numbered along this chain (parent)
chain: MGESLFKGPRDYNPISSSICHLTNESDGHTTSLYGIGFGPFIITNKHLFRRNNGTLVVQSLHGVFKVKDTTTLQQHLVDGRDMIIIRMPKDFPPFPQKLKFREPQREERICLVTTNFQTKSMSSMVSDTSCTFPSGDGIFWKHWIQTKDGQCGSPLVSTRDGFIVGIHSASNFTNTNNYFTSVPKNFMELLTNQEAQQWVSGWRLNADSVLWGGHKVFMVKPEEPFQPVKEATQL

Variants of: B1
Test: raw area under fraction-flipped curve 0-4 h after induction (AUC4h, not background-subtracted), DNA-recorder readout of cleavage of the substrate (dimensionless); higher = more cleavage of the substrate by the protease variant
Conditions: temperature: 34 °C; time window: 0-4 h after rhamnose induction
Procedure: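 In vivo DNA recorder in E. coli TOP10(DE3) ΔrhaA at 34 °C. Each TEVp single-site mutant (parent TEVp 0) is paired with a single-site variant of the 7-mer TEVs (canonical ENLYFQ|S). The substrate sits between flexible linkers in a Bxb1-sfGFP-TEVs-SsrA fusion, so cleavage stabilises Bxb1 and speeds flipping of a recombination array, read by NGS. The value is the raw area under the fraction-flipped curve over 0-4 h after rhamnose induction (AUC4h), with ≥20 reads per time point. It is not background-subtracted; inactive controls average about 0.047.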
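Note: Bxb1 expression induced with 0.2% (w/v) L-rhamnose at OD600 near 0.5, cultures sampled hourly, flipped fraction per protease–substrate barcode pair counted by paired-end Illumina sequencing.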

Variant	area with substrate ENLYAQS	area with substrate ENLYDQS	area with substrate ENLYEQS	area with substrate ENLYGQS	area with substrate ENLYHQS	area with substrate ENLYIQS	area with substrate ENLYKQS	area with substrate ENLYLQS	area with substrate ENLYMQS	area with substrate ENLYNQS	area with substrate ENLYPQS	area with substrate ENLYQQS	area with substrate ENLYRQS	area with substrate ENLYSQS	area with substrate ENLYTQS	area with substrate ENLYVQS	area with substrate ENLYWQS	area with substrate ENLYYQS	area with substrate ENLYCQS
MGESLFKGPRDYNPISSSICHLTNESDGHTTSLYGIGFGPFIITNKHLFRRNNGTLVVQSLHGVFKVKDTTTLQQHLVDGRDMIIIRMPKDFPPFPQKLKFREPQREERICLVTTNFQTKSMSSMVSDTSCTFPSGDGIFWKHWIQTKDGQCGSPLVSTRDGFIVGIHSASNFTNTNNYFTSVPKNFMELTTNQEAQQWVSGWRLNADSVLWGGHKVFMVKPEEPFQPVKEATQL [L191T]	0.0581	0.0604	0.0632	0.0553	0.0637	0.0533	0.0597	0.0599	0.0516	0.0691	0.0726	0.0782	0.06	0.0773	0.076	0.0957	0.0766	0.0604	
MGESLFKGPRDYNPISSSICHLTNESDGHTTSLYGIGFGPFIITNKHLFRRNNGTLVVQSLHGVFKVKDTTTLQQHLVDGRDMIIIRMPKDFPPFPQKLKFREPQREERICLVTTNFQTKSMSSMVSDTSCTFPSGDGIFWKHWIQTKDGQCGSPLVSTRDGFIVGIHSASNFTNTNNYFTSVPKNFMELLPNQEAQQWVSGWRLNADSVLWGGHKVFMVKPEEPFQPVKEATQL [T192P]	0.0701	0.0605	0.0664	0.0562	0.0643	0.0709	0.0624	0.0559	0.0551	0.0626	0.0642	0.0749		0.0563		0.0323	0.0485	0.044	
MGESLFKGPRDYNPISSSICHLTNESDGHTTSLYGIGFGPFIITNKHLFRRNNGTLVVQSLHGVFKVKDTTTLQQHLVDGRDMIIIRMPKDFPPFPQKLKFREPQREERICLVTTNFQTKSMSSMVSDTSCTFPSGDGIFWKHWIQTKDGQCGSPLVSTRDGFIVGIHSASNFTNTNNYFTSVPKNFMELLTNSEAQQWVSGWRLNADSVLWGGHKVFMVKPEEPFQPVKEATQL [Q194S]	0.0697	0.0569		0.0699	0.0713		0.0647			0.0417									
MGESLFKGPRDYNPISSSICHLTNESDGHTTSLYGIGFGPFIITNKHLFRRNNGTLVVQSLHGVFKVKDTTTLQQHLVDGRDMIIIRMPKDFPPFPQKLKFREPQREERICLVTTNFQTKSMSSMVSDTSCTFPSGDGIFWKHWIQTKDGQCGSPLVSTRDGFIVGIHSASNFTNTNNYFTSVPKNFMELLTNQEAQYWVSGWRLNADSVLWGGHKVFMVKPEEPFQPVKEATQL [Q198Y]	0.0604	0.0468	0.0695	0.0745	0.0597	0.0886	0.0609	0.0711	0.0634	0.069	0.0803	0.0648	0.0605	0.0622		0.116		0.0545	0.0662
MGESLFKGPRDYNPISSSICHLTNESDGHTTSLYGIGFGPFIITNKHLFRRNNGTLVVQSLHGVFKVKDTTTLQQHLVDGRDMIIIRMPKDFPPFPQKLKFREPQREERICLVTTNFQTKSMSSMVSDTSCTFPSGDGIFWKHWIQTKDGQCGSPLVSTRDGFIVGIHSASNFTNTNNYFTSVPKNFMELLTNQEAQQWESGWRLNADSVLWGGHKVFMVKPEEPFQPVKEATQL [V200E]	0.0825		0.0655			0.0923				0.0547		0.0601							
MGESLFKGPRDYNPISSSICHLTNESDGHTTSLYGIGFGPFIITNKHLFRRNNGTLVVQSLHGVFKVKDTTTLQQHLVDGRDMIIIRMPKDFPPFPQKLKFREPQREERICLVTTNFQTKSMSSMVSDTSCTFPSGDGIFWKHWIQTKDGQCGSPLVSTRDGFIVGIHSASNFTNTNNYFTSVPKNFMELLTNQEAQQWVPGWRLNADSVLWGGHKVFMVKPEEPFQPVKEATQL [S201P]	0.0562	0.052	0.0628	0.0503	0.0708	0.0566	0.0525		0.0578	0.059	0.0766	0.0635	0.0643	0.0548		0.0583	0.0511	0.0602	
MGESLFKGPRDYNPISSSICHLTNESDGHTTSLYGIGFGPFIITNKHLFRRNNGTLVVQSLHGVFKVKDTTTLQQHLVDGRDMIIIRMPKDFPPFPQKLKFREPQREERICLVTTNFQTKSMSSMVSDTSCTFPSGDGIFWKHWIQTKDGQCGSPLVSTRDGFIVGIHSASNFTNTNNYFTSVPKNFMELLTNQEAQQWVSGWRFNADSVLWGGHKVFMVKPEEPFQPVKEATQL [L205F]	0.0688	0.0479	0.0623	0.0701		0.0998				0.0675						0.109	0.0824	0.0716	
MGESLFKGPRDYNPISSSICHLTNESDGHTTSLYGIGFGPFIITNKHLFRRNNGTLVVQSLHGVFKVKDTTTLQQHLVDGRDMIIIRMPKDFPPFPQKLKFREPQREERICLVTTNFQTKSMSSMVSDTSCTFPSGDGIFWKHWIQTKDGQCGSPLVSTRDGFIVGIHSASNFTNTNNYFTSVPKNFMELLTNQEAQQWVSGWRLNADCVLWGGHKVFMVKPEEPFQPVKEATQL [S209C]	0.0726	0.0537	0.069	0.0678	0.0648		0.0646		0.093	0.0571		0.0596	0.0753		0.0865	0.106	0.0685		
MGESLFKGPRDYNPISSSICHLTNESDGHTTSLYGIGFGPFIITNKHLFRRNNGTLVVQSLHGVFKVKDTTTLQQHLVDGRDMIIIRMPKDFPPFPQKLKFREPQREERICLVTTNFQTKSMSSMVSDTSCTFPSGDGIFWKHWIQTKDGQCGSPLVSTRDGFIVGIHSASNFTNTNNYFTSVPKNFMELLTNQEAQQWVSGWRLNADSDLWGGHKVFMVKPEEPFQPVKEATQL [V210D]	0.0803		0.0733	0.0628	0.0596	0.0756	0.0161	0.06	0.0637	0.0547		0.0647	0.0575	0.0408		0.078	0.0733	0.0709	0.0734
MGESLFKGPRDYNPISSSICHLTNESDGHTTSLYGIGFGPFIITNKHLFRRNNGTLVVQSLHGVFKVKDTTTLQQHLVDGRDMIIIRMPKDFPPFPQKLKFREPQREERICLVTTNFQTKSMSSMVSDTSCTFPSGDGIFWKHWIQTKDGQCGSPLVSTRDGFIVGIHSASNFTNTNNYFTSVPKNFMELLTNQEAQQWVSGWRLNADSKLWGGHKVFMVKPEEPFQPVKEATQL [V210K]	0.0676	0.0643	0.0715	0.0539	0.0597	0.116	0.0662		0.0676	0.0679	0.0632	0.062	0.0563	0.0732				0.0794	
